# Data as given in PMC4336329 (PLoS ONE, 2015).
# The campaign covered roughly 310,000 compounds. About 2,200 (0.71%) showed an effect of 50% or more. The effect is printed as a negative number. This is one part of the list.
# Biological target: human ether-à-go-go-related gene (hERG) potassium channel (human, UniProt Q12809)
# Assay: primary screen, population patch clamp on CHO cells stably expressing hERG
# human ether-à-go-go-related gene (hERG) potassium channel, sequence (Q12809 whole entry, looked up): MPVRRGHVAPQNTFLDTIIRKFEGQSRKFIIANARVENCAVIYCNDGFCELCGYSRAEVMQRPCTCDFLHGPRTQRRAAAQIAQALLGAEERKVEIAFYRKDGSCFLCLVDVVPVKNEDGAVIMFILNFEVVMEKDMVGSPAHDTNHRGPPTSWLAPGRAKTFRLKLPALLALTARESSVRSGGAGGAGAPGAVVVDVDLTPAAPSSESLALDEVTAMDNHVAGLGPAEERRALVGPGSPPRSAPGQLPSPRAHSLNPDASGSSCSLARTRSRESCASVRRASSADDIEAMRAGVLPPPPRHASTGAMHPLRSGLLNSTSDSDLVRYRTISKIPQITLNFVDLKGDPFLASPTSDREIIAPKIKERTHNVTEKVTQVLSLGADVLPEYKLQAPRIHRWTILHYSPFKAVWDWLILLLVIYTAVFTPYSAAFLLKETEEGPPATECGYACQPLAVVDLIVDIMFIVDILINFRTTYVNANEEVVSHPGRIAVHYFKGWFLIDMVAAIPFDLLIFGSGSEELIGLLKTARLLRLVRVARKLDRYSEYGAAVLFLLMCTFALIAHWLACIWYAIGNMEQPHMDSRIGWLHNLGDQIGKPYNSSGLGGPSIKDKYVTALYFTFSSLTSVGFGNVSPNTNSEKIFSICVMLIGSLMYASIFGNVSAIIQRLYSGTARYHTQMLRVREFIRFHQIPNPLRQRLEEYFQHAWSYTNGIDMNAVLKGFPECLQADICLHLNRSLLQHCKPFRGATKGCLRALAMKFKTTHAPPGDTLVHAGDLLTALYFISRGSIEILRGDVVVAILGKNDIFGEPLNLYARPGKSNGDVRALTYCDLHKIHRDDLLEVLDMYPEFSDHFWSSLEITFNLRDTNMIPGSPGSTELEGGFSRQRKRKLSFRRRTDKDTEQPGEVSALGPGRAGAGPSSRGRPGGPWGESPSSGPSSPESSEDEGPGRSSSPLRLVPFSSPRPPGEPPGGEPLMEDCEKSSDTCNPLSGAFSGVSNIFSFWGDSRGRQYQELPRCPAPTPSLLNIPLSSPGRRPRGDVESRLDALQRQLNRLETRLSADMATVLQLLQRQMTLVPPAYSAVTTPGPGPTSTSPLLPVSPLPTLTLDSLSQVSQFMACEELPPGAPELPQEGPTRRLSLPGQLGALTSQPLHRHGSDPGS
row,Structure (SMILES),"hERG current change (%, negative = inhibition) at 1uM [%]"
1,CCN(CC)c1ccc(/C=N/NC(=S)NCc2ccccc2)c(O)c1,6.11
2,CN(C)c1nnnn1Cc1ccccc1,14.2
3,Cc1ccc2nc(-c3ccncc3)cc(C(=O)N3CCC4(CC3)OCCO4)c2c1,1.27
4,CCc1cc(=O)oc2cc(OCC(=O)NCCCN3CCCC3=O)c(Cl)cc12,17.5
5,Cc1ccc(C)c(NC(=O)CN(C)C(=O)c2ccc(-n3cncn3)c([N+](=O)[O-])c2)c1,-2.6
6,Cn1c(SC2CCCCC2=O)nnc1-c1ccccc1F (stereo not shown),15.5
7,NC(=O)C1CCN(C(=O)c2ccc(-c3ccccc3)cc2)CC1,8.47
8,Nc1nc2ccccc2n1CCOc1ccccc1Cl,-0.285
9,O=C(CSc1ccc(F)cc1)NC12CC3CC(CC(C3)C1)C2,8.16
10,CC(C)c1ccc(NC(=O)CCNC(=O)N2CC(=O)Nc3ccccc32)cc1,13.3
11,C/C=C\C(=O)Nc1cccc(C2=NOC3(C2)C[C@H](C(N)=O)N(C(=O)/C=C/CC)C3)c1 (stereo partly shown),12.7
12,O=C(c1ccncc1)N1N=C(C2CC2)CC1(O)C(F)(F)F (stereo not shown),7.9
13,Cc1cccnc1NC(=O)c1ccc(OCC2CCCO2)cc1 (stereo not shown),12.4
14,CCCNC(=O)NC(C)C12CC3CC(CC(C3)C1)C2 (stereo not shown),9.76
15,COc1ccc(Cc2nnc(SCC(=O)N3CCCCC3)o2)cc1,1.06
16,COc1ccc(-c2c(C)nn3c(C)cc(C)nc23)cc1,13.1
17,CCCNC(=O)c1ccc(N2CCC3(CC2)CC(c2ccccc2)=NO3)c(NC(=O)c2ccc(Br)cc2)c1,6.67
18,Cc1nn(-c2ccccc2)c(N)c1N=O,12.8
19,c1ccc2nc(N3CCN(Cc4ccc5c(c4)OCO5)CC3)cnc2c1,6.24
20,Nc1nc(SCC(=O)Nc2ccc(S(N)(=O)=O)cc2)n[nH]1,-1.22
21,Cc1nc2scc(C)n2c(=O)c1S(=O)(=O)Nc1ccc(F)cc1,10.4
22,Cc1ccc(S(=O)(=O)CCc2nc3ccccc3n2CCC#N)cc1,2.55

row,Structure (SMILES),"hERG current change (%, negative = inhibition) at 1uM [%]"
1,CN1C(=O)C(C)(C)c2cc(S(=O)(=O)N3CCN(c4ccccc4F)CC3)ccc21,1.55
2,Cc1ccc(NNC(=O)c2c(C)noc2C)cc1Cl,11.9
3,CC(C)(C)OC(=O)N1CCC(Cc2cc(-c3cccc(Br)c3)no2)(C(=O)O)CC1,-14
4,COc1cc(C)nc(N(C)C(C)=O)n1,9.31
5,Cc1ccc(C)c(-n2c(=O)c(C#N)cc3c(=O)n4ccccc4nc32)c1,21.3
6,O=C(CSc1ccccc1F)Nc1ccc(N2CCOCC2)cc1,12.6
7,N#Cc1c(-c2ccc(Cl)cc2)cc(-c2ccccc2)nc1SCC(=O)O,9.85
8,CC(C)Sc1nnc(CNC(=O)C23CC4CC(CC(C4)C2)C3)n1C1CCCCC1,-0.429
9,Cc1cc(Nc2nnnn2-c2ccccc2)n(-c2ccc(Cl)cc2)n1,9.18
10,COc1cc(/C=N/NC(=O)CN2CCCCC2)ccc1OCc1ccccc1,-37.7
11,O=C(CCCCn1c(=O)c2ccccc2n(CC(=O)Nc2ccc(F)cc2)c1=O)NCc1ccco1,2.48
12,CN(C)c1ccc(N/C(=N\S(=O)(=O)c2cccs2)c2ccccc2)cc1.Cl,6.87
13,COc1ccc(-c2nc(CNS(=O)(=O)c3ccc(OC)c(OC)c3)cs2)cc1,-1.62
14,Cc1ccc(CNC(=O)C2(C(F)(F)F)C/C(=C\Cc3ccccc3)CCCO2)o1 (stereo not shown),13.2
15,CCC(C)(C)NC(=O)C1CCN(c2nc(OC)nc(OC)n2)CC1,8.29
16,CNC(=O)Oc1ccc2c(c1)[C@]1(C)CCN(C)C1N2C.O=C(O)c1ccccc1O (stereo partly shown),11.3
17,O=C(Cc1ccc(Cl)cc1)Nc1ccc(SC(F)F)cc1,-1.45
18,CN(C)CCN(C(=O)c1ccc2ccccc2c1)c1nc2c(F)cc(F)cc2s1.Cl,13.7
19,COc1ccccc1NC(=O)c1nnn(Cc2ccccc2)c1NC(=O)C(F)(F)F,-5.21
20,Cc1ccc(OCC(=O)NCc2ccccc2)c([N+](=O)[O-])n1,9.74
21,CCNC(=O)COC(=O)c1cc(S(=O)(=O)N2CCCCC2)ccc1C,5.5
22,Cc1[nH]ccc(=O)c1OCc1c(Cl)cccc1Cl,10.2

row,Structure (SMILES),"hERG current change (%, negative = inhibition) at 1uM [%]"
1,O=S(=O)(Nc1ccc(-n2cccc2)cc1)c1ccccc1,5.07
2,CCOc1ccc(N2C(=O)CC(N3CCN(C(=O)CN4CCCC4)CC3)C2=O)cc1 (stereo not shown),20.1
3,COc1ccc(S(=O)(=O)N2CCSC2c2ccc(N)cc2)cc1 (stereo not shown),-2.49
4,CCc1nnc(NC(=O)CSCc2cc(=O)n3nc(C(C)C)sc3n2)s1,7.52
5,Cc1occc1C(=O)Nc1ccc(Br)cc1F,4.2
6,CC(=O)NN1C(=O)c2ccccc2NC1c1ccccc1 (stereo not shown),17.6
7,COC(=O)C(C)Oc1cc(C)ccc1COc1ccc(-n2nc(C)n(C(F)F)c2=O)cc1 (stereo not shown),11
8,Cc1cccc(Cn2c(N(C)Cc3ccccc3)nc3c2c(=O)[nH]c(=O)n3C)c1,8.04
9,CC1CCCCC12NC(=O)N(CC(=O)N1CCN(S(=O)(=O)/C=C/c3ccccc3)CC1)C2=O (stereo not shown),5.21
10,Cc1cc(C)n(CCNC(=O)c2cc(COc3c(F)cccc3F)on2)n1,8.43
11,Cc1ccc(C(=O)OCc2cn(-c3ccccc3)nn2)cc1,5.41
12,COc1ccc(Cc2nc3ccc(C(=O)N(C)Cc4nccs4)cc3o2)cc1OC,14.4
13,O=C(Cn1cc2c(n1)CCCC2)N1CCCC1,8.36
14,COc1cc2c(cc1OC)CN(C(=O)CNS(=O)(=O)c1ccc(C)c(C)c1)CC2,11.2
15,CCOC(=O)Cn1nc(-c2ccc(F)cc2)cc(Cc2ccccc2)c1=O,10.1
16,COc1ccc(NC(=O)CSCC(=O)Nc2cccc3ncccc23)cc1,15.1
17,Cc1cc(F)ccc1S(=O)(=O)N1CCCOC1CNC(=O)C(=O)NC1CCCC1 (stereo not shown),1.93
18,Cc1ccc(S(=O)(=O)N2CCN(C(=O)CN3CCOCC3)C2c2ccccc2)cc1 (stereo not shown),8.45
19,CCN(Cc1ccccc1)C(=O)c1ccc(SC)cc1OC,15.4
20,CCCCCC(=O)Nc1ccc(C(=O)COC(=O)c2ccccn2)cc1,-2.64
21,CC(=O)c1ccc(N2CCN(C(=O)c3cccc(Oc4ccccc4)c3)CC2)cc1,0.983
22,O=C(CCN1CCCCC1)NCC(=O)Nc1ccc(Br)cc1C(=O)c1ccccc1,-78.1

row,Structure (SMILES),"hERG current change (%, negative = inhibition) at 1uM [%]"
1,C[C@@H](NC(=O)c1nc[nH]c1C(=O)NCc1ccccc1)c1ccccc1,15.8
2,CC(C)c1ccc(/C=C(\NC(=O)c2ccccc2)C(=O)NCCCN2CCOCC2)cc1,-35.8
3,CC(C)[C@H](NC(=O)N1C[C@H]2C[C@@H](C1)c1cccc(=O)n1C2)C(=O)Nc1ccccc1F,5.29
4,CNC(=S)NNC(=O)c1ccccc1F,15.9
5,O=C(c1cc(-c2ccc(Cl)cc2Cl)on1)N1CCCC1,12.5
6,NC(=O)c1ccc(C(=O)N/N=C/c2cccc(Oc3ccccc3)c2)cc1,14.9
7,Cc1nc(SCc2cccc(Oc3ccccc3)c2)n[nH]1,-3.95
8,CCCCCN(C(=O)COC(=O)c1ccc(C)cc1)c1c(N)n(CCCC)c(=O)[nH]c1=O,6.05
9,O=S1(=O)CCOC[C@H](Cc2ccccc2)N1Cc1ccc(F)cc1,11.3
10,CN(CCC1CCOCC1)C(=O)C1CCC(=O)N(CCc2cccc(F)c2)C1 (stereo not shown),13.5
11,CC(=O)Nc1ccc(Oc2ccc(NC(C)=O)c(NC(C)=O)c2)cc1,8.86
12,Cc1cccn2c(=O)nc(SCC(=O)Nc3ccc4c(c3)OCCO4)nc12,17
13,Cc1ccccc1-n1c(=O)c(C#N)cc2c(=O)n3ccccc3nc21,-1.23
14,Cc1ccc2cc(CCNC(=O)Cc3cccs3)c(=O)[nH]c2c1,7.37
15,CCc1c(C)[nH]n(-c2ccc(Oc3ccccc3)c(S(=O)(=O)O)c2)c1=O,18
16,O=C(NC1CC1)c1cccc(S(=O)(=O)Nc2ccccc2F)c1,6.25
17,Cc1ccc(CCN2CC(C(=O)NC3CCCCC3)CC2=O)cc1 (stereo not shown),-2.15
18,COc1ccc(O)c(C(=O)/C=C/c2cc3ccccc3o2)c1,10.7
19,Cc1ccccc1N/C(SCc1ccc(Cl)cc1)=C(/C#N)C(=O)NCc1ccco1,7.88
20,COc1ccc2[nH]c(=O)c(CN(CCN3CCCC3)C(=O)Nc3ccccc3Cl)cc2c1,2.67
21,Cc1ccc(NC(=S)NC(=O)c2ccc(-c3ccc(Cl)cc3)o2)c(O)c1,14.6
22,CCN(CC)CCCNC(=O)c1ccc(C)c(NC(=O)C2=C(C)OCCS2)c1,10.9
